# Data from ChEMBL document CHEMBL4888484, “Replenishing the malaria drug discovery pipeline: Screening and hit evaluation of the MMV Hit Generation Library 1 (HGL1) against asexual blood stage Plasmodium falciparum ,using a nano luciferase reporter read-out” (2022).
# Among all 150,000 compounds or so, about 540 (0.36%) showed an effect of 50% or more. This is one part of the list.
# Tested on: Plasmodium falciparum
# Test: Primary screen in NF54 nanoGlo assay, in single point, at 2uM, 72h; a lower Z score goes with more inhibition
# Format: functional, Erythrocyte
# Conditions: timepoint 72 hour
Structure (SMILES),% Inhibition [%],Z score
Cc1cnccc1C(=O)NC1(CO)CCCCCC1,-6,0.98
CC[C@H](C)N(Cc1ccsc1)C(=O)CCC(=O)Nc1cccc(O)c1,3,-0.47
Cc1cccnc1CN1C(C)CCCC1CO (stereo unspecified),-14,1.28
COc1cc(OC)cc([C@@H](O)CNC(=O)Cn2cccnc2=O)c1,-10,1.69
CN(C)c1nc(N)cc(-c2ccc(C(=O)NCCCOC3CCCC3)cc2)n1,-3,0.4
Cc1ccccc1OCC(=O)NCc1nc(-c2cccn2C)no1,-8,1.6
Cc1cc(NCc2cccnc2Oc2ccc(C)c(F)c2F)nc(N)n1,1,-0.17
O[C@H](COC1CCOCC1)Cn1c(-c2ccccn2)nc2ccc(Cl)cc21,-3,0.36
Cc1nnc([C@H](C)N2CCn3c(n[nH]c3=O)C2)s1,-15,1.88
O=C1CN(CCCNC(=O)[C@]2(c3ccccc3)CC23CCCC3)CCN1,0,-0.06
CC(CC1CCCC1)C(=O)NCC1CCN(C)C(=O)C1 (stereo unspecified),-13,1.37
O=C1NC(=O)C2(CCN(C(=O)C3CC3c3ccccc3)CC2)N1 (stereo unspecified),-5,0.7
CC[C@]1(O)CCN(C(=O)c2cnc(N3CCOCC3)nc2)C[C@@H]1O,-8,0.75
Cc1cc(C)cc(OC(=O)Cn2c(=O)sc3cccc(Cl)c32)c1,3,-0.45
CS(=O)(=O)N[C@@H]1CC[C@H]2CCOc3ccccc3C(=O)N3CCN(C4Cc5ccccc5C4)C[C@H]3C(=O)NC[C@H]1O2,14,-1.63
Cc1nnc([C@H]2OCC[C@H]2CNc2cnc3cc(Cl)ccc3n2)[nH]1,-1,0.2
Cc1cc(C(=O)N2CCn3c(n[nH]c3=O)[C@H]2c2ccccc2)c(C)o1,-5,0.85
O=C(Cn1c2c(c(=O)n1-c1ccccc1)Cc1cc(Br)ccc1O2)NC1CCCC1,-8,0.81
O=C(N[C@H](C(=O)O)C1CCCCC1)c1ccc(-c2cc[nH]n2)s1,-6,1.05
CO[C@H]1COCC[C@@H]1NC(=O)c1nc(=O)[nH]c2ccccc12,-4,0.48
COc1ccc(-c2noc(N(C)CC(=O)Nc3ccccc3OC)n2)cc1,-8,1.51

Structure (SMILES),% Inhibition [%],Z score
CC(C)n1nccc1NC(=O)N1CCCC[C@@H]1CCN(C)C,5,-0.79
Cc1nc2ccnn2cc1C(=O)Nc1cccc2c1OC(C)(C)CC2,-6,1.23
COC(=O)c1ccc(S(=O)(=O)NC2(c3ccccc3)CCC2)cn1,-10,0.94
COc1nc(NC[C@H]2CCCN2C(C)C)ncc1F,64,-12.06
Cc1nc(C(=O)Nc2ccc3c(c2)OCCO3)co1,-11,1.88
Cc1noc(C)c1CC(=O)N[C@@](C)(CO)C1CCCCC1,-12,1.26
CO[C@@]12CC[C@@H](OCC3CC3)C[C@@H]1N(C(=O)c1csc(C(C)C)n1)CC2,-2,0.34
CCN(CC)[C@@H](CNC(=O)CNC(=O)C1CCCC1)c1ccco1,7,-0.86
O=S(=O)(c1ccccc1)N1CCN(Cc2noc(-c3ccco3)n2)CC1,-2,0.29
COc1cccc(OC2CN(c3cccc(C(=O)O)n3)C2)c1,-14,1.52
COCc1noc(C[C@H]2CN(C(=O)c3c(C)cc(C)[nH]c3=O)CCO2)n1,2,-0.34
Cc1cc(CN(C)c2nc(C(F)(F)F)nc3[nH]cnc23)no1,-10,1.28
c1ccc2c(Oc3ccc4c(c3)CCC4)ncnc2c1,35,-3.96
O=S(=O)(c1ccccc1F)N1CCC[C@](CC2CC2)(c2noc(C3CCOCC3)n2)C1,-6,1.04
COc1cccc(CC(=O)N2CCC(F)(C(=O)N3CCOCC3)CC2)c1,-14,1.88
CS(=O)(=O)N(CC(=O)NC1CC1)C1CCCCC1,-8,0.98
COCN1C(=O)CCc2cc(NCc3cncs3)ccc21,2,-0.4
COc1ccc(C[C@@]2(CCC(=O)N3CCN(c4cccc(C)c4C)CC3)CCC(=O)N2)c(F)c1,-4,0.59
CN(C)S(=O)(=O)NCC#CCOc1ccccc1C(N)=O,-13,1.69
CC[C@H](CO)NC(=O)NCc1c(Cl)cccc1OC,-22,2.53
Cc1ccc(CC(=O)N(CCS(=O)(=O)N2CCNCC2)C2CCCCC2)cc1,-6,0.67

Structure (SMILES),% Inhibition [%],Z score
Cc1ccc([C@@H]2c3c(N)ncnc3Oc3ccc4ccccc4c32)cc1,-5,0.57
O=C(c1ncccc1O)N1C[C@H]2CC[C@@H](C1)N(Cc1ccccc1)C2,-10,1.29
Cc1ccc(CNCc2nonc2C)cc1C,-3,0.39
CC(C)(C)c1ccc(-c2c(N3CCCC3)cn[nH]c2=O)cc1,-5,0.87
CCn1cnc2cc(-c3noc(CNC(=O)Cc4ccccc4)n3)ccc21,-14,1.82
Cc1cc(C)c(OC(=O)Cn2cnc3c2c(=O)n(C)c(=O)n3C)c(C)c1,-13,2.46
Cc1n[nH]c(=O)nc1Nc1cccc2cccnc12,5,-0.65
CCc1sc(-c2nnc(CN[C@H](c3ccc(F)cc3)c3cccs3)o2)cc1C,-9,1.16
O=C(N1CCCN(C(=O)C2(O)CCCC2)CC1)C1(O)CCCC1,-4,0.42
Cc1cc(Br)oc1C(=O)Nc1nc(-c2ccc3c(c2)OCCO3)cs1,-5,0.69
Cc1nc(C)n(C2CN(S(=O)(=O)Cc3cc(C#N)ccc3F)C2)n1,3,-0.45
Cc1nn(-c2ncc(C(F)(F)F)cc2Cl)c(=O)n1-c1ccc(OCc2ccccc2)cc1,41,-5.31
Cc1ccc(O[C@@H](C)CNC(=O)Nc2cccn(C)c2=O)cc1,-13,1.2
Cc1noc(-c2ccsc2NC(=O)c2ccccc2C)n1,-12,2.26
Cc1ccccc1N1CC[C@@H](C(=O)N2CCN(Cc3ccccc3)CC2)C1=O,-13,1.59
Cc1c(F)cccc1CN1CC[C@]2(O)CCN(C(=O)C3CCC3)C[C@@H]2C1,-5,1.07
COc1ccc(S(=O)(=O)NCc2nc3cccnc3n2C2CC2)cc1,-9,1.41
O=C(c1ccc2nc(-c3ccccc3)cn2c1)N1CCOC[C@@H]1CO,-11,2.03
O=C(CC1CCN(C(=O)c2ccc3nc(-c4ccccc4)oc3c2)CC1)NC1CCCCC1,-17,2
C[C@H]1C(=O)NCCN1C(=O)C1=CCCCO1,-7,1.08
CC(C)(C)NS(=O)(=O)Cc1ccc(Br)cc1,-10,1.39

Structure (SMILES),% Inhibition [%],Z score
Fc1cccc(Cl)c1CNCc1cccnc1-n1cccn1,-2,0.48
Cc1ccc(C(N)=O)c(NCC[C@H](O)CO)n1,-3,0.56
CC(=O)N1C[C@H](NC(=O)c2ccc(-c3ccc(C)o3)cc2)[C@@H](C2CC2)C1,-4,0.7
CN(Cc1cccnc1)c1nccc(N2CCN[C@@H]3CS(=O)(=O)C[C@@H]32)n1,-11,1.45
CCOc1ccc(N2C[C@@H](C(=O)NC3CCCC3)CC2=O)cc1,4,-0.65
CC(C)C(=O)Nc1nc(CCc2c[nH]c3ccccc23)n[nH]1,-5,0.68
O=C(c1cc(C2CC2)no1)N1C[C@@H]2CC[C@H]1CN(C1Cc3ccccc3C1)C2,-5,0.87
Cc1cc(-c2nc(C(=O)N3CCCNC(=O)[C@@H]3C)co2)ccn1,-2,0.31
O=C(c1ncc2ccccc2c1O)N1CCO[C@@H](CF)C1,-4,0.56
CN(CCc1ccccn1)[C@H]1CCN(Cc2ccco2)C[C@@H]1O,-2,0.34
Cc1nc(Oc2ccc3c(c2)CCC3)sc1C(=O)O,29,-3.25
COc1ccc(CN2C[C@@H](C(=O)Nc3ccc4[nH]ccc4c3)CC2=O)cc1OC,0,0.08
O=C(Nc1cccs1)NC1CCC2OCCOC2C1 (stereo unspecified),-10,1.86
O=C([C@H]1CCc2cn[nH]c2C1)N1CCC(c2ccc(F)c(F)c2)CC1,-16,1.86
CO[C@@H](CNC(=O)c1ccccc1C)c1cc2ccccc2o1,-10,1.11
COc1ccccc1/N=C(\NC(=O)c1ccc(C)cc1)N1CCN(C2CCCCC2)CC1,-5,0.97
CC[C@@H](CO)N(Cc1cccnc1)C(=O)c1n[nH]c(C)c1Cl,-6,1.17
Cc1cccc2c1nc1n2[C@@H](CNCc2c[nH]c3ccccc23)COC1,1,-0.2
Cc1ccc(NC(=O)C2CCN(c3c(-n4c(C)ccc4C)c(C)nn3-c3ccccc3)CC2)cc1,4,-0.54
CCC[C@H](O)CN(CCC(C)C)Cc1cccn1Cc1ccccc1C,5,-0.46
